In all, about 2,300 sequences were measured (“median log2 fold change of GCK-ALFA target abundance (FLAG IP / Myc IP barcode read proportion)”: median about 0.095, lowest 2% from about -0.47 on). The list shows a part of the results.
B1: LC3A_28_1098 (protein)
chain: MELEESLEEALKKAREAAEAGEEVVITIKVPETATEEDLEKLKETLEEIAEITKDLPRVTVVIDLDGEGAEEKANILGEFAEKLEKKYPNLTVIIALPED
B2: LC3A_16_526 (protein)
chain: KEEAKKTLELLKKAYEALDTDEEAFIAELEKIDPALAAQARAALAQPDAKAKHYELLAQKLEEFLKKYKDELTEEEKAEVENMATAAEVESDLELLKLEE
B3: LC3A_free_46_2353 (protein)
chain: VKAEIDIDLLHKDKEVLEKAVEEIKKAAEEIAKKYGLKVKIEEEISKLPDGSYYAEIKIILEGETEEDLKAAVNELINEIEKIAKKYDVAAIISYEIIKE
B4: LC3A_28_1124 (protein)
chain: SKRKEEWEKAFEEAKELAEKGEYVVAEFKATGEDTEEDVKYLIEILEKAAEYLSKKGQSSILLDIDGKLKPELRDYVISEADKIEKKYPSVNIVIALEED
B5: LC3A_free_39_2230 (protein)
chain: MEEEVEKLIEEVAKESGIDLEYVREKIEEIQKVAELSLEEILEIIKELLKAVKEGADAKEILEEALEIAKELKKEGKSPEEILEEILELIRDYRNLIPLD
B6: LC3A_17_541 (protein)
chain: SEELRRELERLLREARALVERVAPHLPEAAAAARRRLEEAERLLEAGRLREAAELLAELAREMAAAIDATEWPDPLEREVLAMEFEGLAVEAELLLLKLE
B7: LC3A_free_39_2175 (protein)
chain: SEEELEEAEEELLELAEEEGEETLEIVEEILELIEGNLELVKLLVEGLKKIKEEGGDVKEAVEEILEKIKELKEAGKSMEEILEEVKKIIEDFLNLIPLD
B8: LC3A_3_1657 (protein)
chain: MEELLKETLEYLKKKGKSEETLKAVREALEALIEKGYENAAKTFAELLKELAHLSDEILKEMAEEVLELVKTSNLSEEEMTEEIKKIAKTALNESEIIEL
B9: LC3A_3_1646 (protein)
chain: PEEKVKELEEELKKAGHNEETIEAFRETAEALIEKGYYEALEVLIEEVRKLKDLPSDILLAMLEDILETVKTEDLSEEELIEKIKEEARIARSEGEIIEL
B10: LC3A_147_440 (protein)
chain: YRVDVDIDIIVENAEEEVLKRFEELKKELEAKGYKVELEIEVEELEEGVSFINIRITIEAETREEAEAAAQMVVDAVDELEKELKDKILASIISVDIEEL
B11: LC3A_3_1720 (protein)
chain: AEEIKEEIIKTLKEQGRSEETIEAAEKLANALIEKGYLNALKTLLELLKEMKDVSDEVLLEMLEDLLYIVENENLSEEELIKKIKEEAEVARKEEEIIEL
B12: LC3A_free_39_2184 (protein)
chain: SEEEREKAVEELLELAREEGEETEELARKLLEILGDDYERVKELLELVKEAKEEGVDLKEMFKEALELAEKLQKEGKSQEEIAEEVLETIRDHINLIPID
B13: LC3A_3_1840 (protein)
chain: LDEEVEAALAALRAAGHSEEALAAVRAAAEALRARGYDEALRTFVELMRRMLHLPSELVRALAEDVLRLVREEDLSEAELTARIRELARLYENEAEIEEL
B14: LC3A_28_1054 (protein)
chain: SKVDEEIKKALEEAKELAAKGEEALINITINEDDTEEDVEKKLETIKEIAEINKDLPATSIIVDVDNKNKEEVTKKFAELGDELEKKYPNVTVIIALSEE
B15: LC3A_28_1221 (protein)
chain: MKVEEQIEKAREQAEAARARGEEALIEVEIDESTTVEDARRIMEALEEIVAEAADLPAISIVVNVDEGVSQEVIDEIAERGERIEERFPNVTVIIALSEE
B16: LC3A_3_1368 (protein)
chain: MEEEIEKTLKKLKELGKSEETLEAIRRAAEALLEKGYEEALKTFLELMLELAHLPDELLLWMAEEVLAAVEAGELSEEELIEFIKREATVARNEAEIEEL
B17: LC3A_3_1639 (protein)
chain: MEEKIEERKKLLKEAGHSEEVIEAFEETAELLKEKGYYEALETLIEEMEKLKDLPDEILLAMLEEVKAVVKEPDKTEEEVIKAIKEIARVARNEGEIIEL
B18: LC3A_free_39_2255 (protein)
chain: SMEEIEKIRKELEKEAAKTSPEVREAVLALADLLKDDPELLKKLLELLKKAIEKGPEKVKDLGALAAEAVARIKAGEDPKEVAEEMIKLGENAVEIEEID
B19: LC3A_28_906 (protein)
chain: GAALAQLEAALAQVRAAVAAGDTSPLVLTITAPSDQENTDKFLEGLEKLAEEASKLPGVTIVIDIDESVSQENKDKIIDKAEELEEKYPNVTVIIALPES
B20: LC3A_3_1497 (protein)
chain: REELLEEMRKVLEERGASEEQIEEVLEAAERILEKGLEETVRTFIELVKENKDLSPEKILTAVLITRDYVEEENLDEESAIEKTKQILEDVKEIEEIEEE
B21: LC3A_free_39_2238 (protein)
chain: SKEEIEKLIKEIAEESGLEYEEVKKKIEEIQKVAGLTDEQILEIVKAILEAVKAGADGKEILEESLKIAKELKAEGKTPEEIKEAILEYIEDMRNLVPLD
B22: LC3A_28_867 (protein)
chain: MTIEERVAAARAQAEADAAEGEPIVITVEVTSEMSLEEAEELLRRVLDIARAFVAETGLPVHIVVDHDGDPEKLDAILDLADAAEAEDPRITVYVAISEE
B23: LC3A_13_348 (protein)
chain: TVTLTAETPEEALEKGTAALEANPGQTVNLTVTVRDEEEADKVAEVVKKLIDLAIEKGNALNVTLKGKRDLVLYAAVEIGSYIFEHLGQADVTVSTEEVE
B24: LC3A_28_1206 (protein)
chain: SATKKAAEAALKEAKAAAAAGEEKVIVLEVVGGVTEEETEYVIKKLEEIAKIAAENPKLSILIDISGGVAEEHQDKIIDKAEELEEKYPNVNIIIALEEE
B25: LC3A_3_1714 (protein)
chain: MEELLKEAREILEKQGRSEETIKAALEALKALLEKGYEEAAKTLIELLKEMKDLSDEILLNFFEDVKEYVETEDASEEETIKFIKEEARIARSEQEIEEL
B26: LC3A_3_1854 (protein)
chain: MEEIIEEALEHLRKLGRSEETIEAARELLEELAERGFEEAAKTFLEELKKLENVSDEDLLAMFEELLRALREEDLNEEEAIELIKSEARVLLNDLEIEEL
B27: LC3A_62_2045 (protein)
chain: MWRAVVEVDILAKDEEAAKKIAEEIKEMLEKLKKEDPRISFEVKLDLENKFVEVTVTYEAETKEEAEAAAEKILKALDELLEKNKDLIKASLISREFEKL
B28: LC3A_147_513 (protein)
chain: MYEVDVDILVKKEGKEKVLKELKEILEELKEEGYKVEVLEEKIEEEGDEVFIHIKVRIEAETEEEAKEAVNRFISKLEELEEKYKDLIKGTLISVEEIEP
B29: LC3A_28_1067 (protein)
chain: NALEAQLAAARAEARAAAAAGEEVVVTLTLDEDSTEADLEAVLATMRELAAIAAGSPALTIVVDVDNPNAEEWTTRIAEEGDRLEAENPNVTVLIALSEE

Biological target: MAP1LC3A, Q9H492
Assay: median log2 fold change of GCK-ALFA target abundance (FLAG IP / Myc IP barcode read proportion) (log2 ratio); each designed protein is fused to an ALFA-tag nanobody in HEK293 cells to bring the named protein to FLAG-tagged glucokinase (GCK); Myc marks an untargeted standard; higher = target protein stabilised (more abundant)
Conditions: target protein: 3xFLAG-MCP-GCK-ALFA reporter; HEK293 landing pad (RPLP)
How it was run: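 Sequencing of reverse-transcribed, amplified circular RNA barcodes from anti-FLAG and anti-Myc immunoprecipitates provided the readout for an ALFA-nanobody-fused binder library recombined into HEK293 landing-pad cells. Those cells were induced with 2 μg mL^−1 doxycycline, transfected with a plasmid expressing a FLAG-tagged target and a Myc-tagged standard, and lysed after 48 h. Target abundance is the per-binder median log2 ratio of FLAG to Myc barcode read proportions. Only barcodes at a proportion of ≥10^−7 in both replicates and binders with ≥3 barcodes per replicate were kept, with a 10^−6 pseudocount added before the two replicates were pooled.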

B1 and B2 are within 0.2 log units of each other in “median log2 fold change” value: 0.224 for the first, 0.154 for the second.

Compared with B3, B4 is lower in “median log2 fold change” value: -0.0249 for the first, -0.453 for the second.

B5 and B6 are within 0.2 log units of each other in “median log2 fold change” value: 0.218 for the first, 0.0466 for the second.

B7 and B8 are within 0.2 log units of each other in “median log2 fold change” value: 0.302 for the first, 0.182 for the second.

First: B9
Second: B10
The “median log2 fold change” value of the first is higher: 0.127 for the first, -0.182 for the second.

B11 and B12 are within 0.2 log units of each other in “median log2 fold change” value: 0.238 for the first, 0.251 for the second.

First: B13
Second: B14
The “median log2 fold change” value of the first is higher: 0.299 for the first, -0.207 for the second.

B15 and B16 are within 0.2 log units of each other in “median log2 fold change” value: 0.109 for the first, 0.294 for the second.

B17 and B18 are within 0.2 log units of each other in “median log2 fold change” value: 0.269 for the first, 0.265 for the second.

First: B19
Second: B20
The “median log2 fold change” value of the first is lower: -0.0833 for the first, 0.197 for the second.

B21 and B22 are within 0.2 log units of each other in “median log2 fold change” value: 0.0312 for the first, -0.153 for the second.

First: B23
Second: B24
The “median log2 fold change” value of the first is higher: 0.223 for the first, -0.198 for the second.

B25 and B26 are within 0.2 log units of each other in “median log2 fold change” value: 0.151 for the first, 0.154 for the second.

Going from B27 to B28, the “median log2 fold change” value falls from 0.0247 to -0.261.

For B29, the “median log2 fold change” value was -0.0745.
